Reference: the supplement of paper PMC3334620
The full ranking holds about 33,000 sequences; the median of “E-score (-0.5 to 0.5)” is about -0.032, and the highest 2% start at about 0.36. This is one part of the list.

target: T1, Sko1 (UniProt Q02100); assay: PBM E-score (8-mer binding enrichment) (E-score (-0.5 to 0.5)); higher = stronger / more preferred TF binding; most listed sequences are background and not binding sites; conditions: protein concentration: 200 nM; construct: GST-full length
T1 sequence: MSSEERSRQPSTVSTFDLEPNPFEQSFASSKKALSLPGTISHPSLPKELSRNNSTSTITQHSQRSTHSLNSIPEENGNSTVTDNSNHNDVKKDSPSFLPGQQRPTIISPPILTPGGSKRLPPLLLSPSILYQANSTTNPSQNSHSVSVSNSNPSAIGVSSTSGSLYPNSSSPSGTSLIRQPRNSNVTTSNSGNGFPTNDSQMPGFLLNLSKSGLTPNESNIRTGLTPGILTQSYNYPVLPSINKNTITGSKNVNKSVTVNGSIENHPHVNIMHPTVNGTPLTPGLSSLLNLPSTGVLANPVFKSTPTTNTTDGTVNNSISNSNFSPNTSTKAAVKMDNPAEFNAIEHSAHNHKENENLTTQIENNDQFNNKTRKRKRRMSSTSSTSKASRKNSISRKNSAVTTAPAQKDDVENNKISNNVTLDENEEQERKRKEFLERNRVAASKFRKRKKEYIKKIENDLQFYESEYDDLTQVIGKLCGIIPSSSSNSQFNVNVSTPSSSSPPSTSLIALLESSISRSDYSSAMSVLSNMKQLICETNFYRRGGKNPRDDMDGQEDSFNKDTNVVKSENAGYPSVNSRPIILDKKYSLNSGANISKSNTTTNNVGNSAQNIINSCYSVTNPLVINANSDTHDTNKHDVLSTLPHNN
Procedure, shortened: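 Using PURExpress in vitro transcription/translation, GST-tagged yeast transcription factors were made in full-length or DNA-binding-domain form. These were applied at about 100-200 nM to double-stranded universal all-10-mer Agilent arrays, and bound protein was detected with fluorescent anti-GST. Scans were normalised with masliner before the Universal PBM Analysis Suite assigned E-scores to ungapped eight-base words pooled with their reverse complements.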

Sequence	PBM E-score
CTGCGCAG	-0.29
CCTGGATC	-0.415
CTCACGCA	0.28
CGAACCTA	-0.138
ACTTGTTA	0.17
ACCCGCAA	-0.171
ATTATAAC	0.134
CTGGGCCA	-0.335
GTGTTAGA	0.143
GCGACTGA	0.034
AGGAGTCG	-0.212
CAACGATA	0.126
ATGCCAAC	0.0459
AAATCTAG	-0.12
AGATCCGC	-0.118
CAGCACAG	-0.0438
ATTAGTGC	0.0939
TCAGGCGA	-0.0685
GCTGGCAA	-0.156
CACAGCGG	-0.21
AATAGGGA	-0.301
GAACAATA	0.209
CAGAAGAG	-0.0605
ATTCCGTG	0.0413
ACTATCTA	0.0641

Sequence	PBM E-score
AAATTTGT	0.148
AGGAAGAT	-0.177
GAGAAGAC	0.1
CCGTCGCG	-0.171
GGTGTTTA	-0.00142
GAGCAAGA	-0.112
CAGCCTCG	-0.191
CCGAGAGG	-0.334
GTTCGGGA	-0.0477
CCTGCCCG	-0.0682
AGAATGTG	0.0848
GTGAGATA	0.133
ATCCGAGC	-0.153
CCACGAAG	-0.0986
CCGTGCCG	-0.0237
CTTTACCA	-0.0191
AGACTAAA	0.0518
CACGCCAG	-0.122
CGTACAAA	0.317
AGCGAAAG	-0.0867
CATTATCA	0.195
ACCGCTAA	0.0752
AGACAATA	0.0886
GCGAGAGC	-0.0235
AATTTAAT	0.255

Sequence	PBM E-score
CAAATGCA	0.181
AATTTGCT	0.105
GCAAATGA	0.06
CGAAAGAG	0.0363
TAGTATGA	0.284
CCGAGCCA	-0.215
CTCGGTCA	-0.126
AAGTGATC	0.112
ATATTGGA	0.0611
TCAGGAAA	0.00962
GATTACGC	0.425
TAGTGGGA	-0.244
ACCCGGGG	-0.156
AGAGCGAG	-0.271
CCTACGCC	-0.0487
ACACACCA	0.0755
GTAGACGA	0.232
ATCACGCC	0.0558
GCATCATA	0.366
ACATAGGT	0.136
GACCAACA	0.17
ATAGAAGA	-0.0166
TCATAGAA	0.219
GACGATAC	0.253
AGAGCCCC	-0.182

Sequence	PBM E-score
ACACTTGA	-0.155
CCACATAC	0.198
GAAAGTAC	0.127
GGAGCGAA	-0.011
ATGGCATC	0.0693
AGATTTCA	0.121
TATTAAGA	0.118
GTATTTGA	0.109
ATCTATTC	0.0232
CGTCGCAC	0.00782
ACGGGATG	-0.19
CCTGTTCC	-0.251
GGGTCACA	-0.256
GGGCAGTA	-0.114
CGGTACGC	0.169
CGCCATAA	0.212
GAGAACAC	0.0313
GAACCACA	-0.0623
TCGAAGCA	-0.0359
ACCCAGAT	-0.237
ATAAGTCC	-0.046
CGGACGTC	0.292
GACGTGAC	0.432
TACGGACA	-0.0266
AGAATGTC	0.196

Sequence	PBM E-score
ATCTTGTA	0.0963
ACACAATA	0.173
TAAGCCAA	-0.0203
TACACGCA	0.261
GACAGTGA	0.112
GAAAGCGA	-0.059
AACTGCTA	0.059
ACATCCAT	0.0911
GATCTAGA	-0.0151
AACTAAGA	0.178
AGCCTCTG	-0.318
CCCAAAGA	-0.106
CAGGTGTC	-0.253
CGCCAAAC	-0.158
GAACCTAA	-0.0781
GGAGGGAA	-0.391
CAGACAGG	-0.208
CCTATACC	-0.227
AGATTGGA	-0.114
GGCGATCA	-0.211
GAAGATGC	-0.236
AATACAAA	0.224
ACGCGGTG	0.00049
AAGGGCTG	-0.276
CCGATATC	-0.00623

Sequence	PBM E-score
AATTGCCA	0.0631
CCATAGCG	0.0329
ATTGTCCG	-0.0584
AACACCTC	0.0383
CGCATCGA	-0.00344
TATCACCA	0.0309
AGCCAGCT	-0.097
GGTACAAA	0.0825
CTCGATGA	0.0638
TAAAGCAA	0.024
CATTGCAA	-0.131
CTCGCCCA	-0.111
AGGACGAA	-0.133
AATGCCGT	0.167
CGCAGTAG	0.012
CATGAGCC	-0.189
ATTGGGGA	-0.136
AATCACTA	0.0894
TGCAGCCA	-0.191
AGCCTTCA	0.0137
CTAGTGAC	0.141
AACCACTA	-0.0789
GCTTAACC	-0.0972
GAGTAAGA	0.0882
GGACGGGA	-0.222

Sequence	PBM E-score
GTTCCTGA	0.0292
AATATGAT	0.254
AGTGACGC	0.416
CGCTTTTA	0.169
ATCACGGC	-0.102
AGTGCAGC	-0.175
ACGATCGA	0.0779
CTAGAGGC	-0.204
CCGTCTCG	-0.0203
GTGCCGGA	-0.244
CTGTCGGA	-0.0296
AACATGGG	-0.0376
GGCATAAC	0.0858
AGATGCTA	0.115
ACACGTGG	0.356
ATGACAGG	-0.143
AAATGCAT	0.0597
ACAAGTCA	-0.168
CCAATCGC	-0.229
AGCAAGGC	-0.269
TCCAGCCA	-0.237
ACCCTTGG	-0.285
